Measured values published in PubChem BioAssay AID493208 (National Center for Advancing Translational Sciences (NCATS), 2011).
The campaign covered roughly 44,000 compounds. About 340 (0.77%) were called active. Not shown: some 5% with an inconclusive outcome. The call rests on the fitted dose curve; in most records, active means well fitted inhibition curve with a large enough effect; inconclusive means small, poorly fitted or top-dose-only effect; inactive means flat fitted curve, though single readings scatter. The list shows a part of the results.

Experiment: Acumen qHTS Assay for Inhibitors of the mTORC1 Signaling Pathway in MEF (Tsc2-/-, p53-/-) Cells: Sytravon;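 further: plate controls were DMSO for no effect and rapamycin for full effect; nearly all actives have a fitted effect of over 50% in size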
Conditions: phospho-rpS6 immunofluorescence/PI, 24 h; series mostly up to 38.3 µM; activity change, negative = inhibition: at the top concentration
Outline: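 Tsc2-/-, p53-/- mouse embryonic fibroblasts (empty-vector line) exposed to compound 24 hrs at 37 C, fixed, immunostained for phospho-rpS6 and counterstained with propidium iodide. Acumen laser scanning gives % positive cells from Alexa 488/PI ratio, thresholded using 7.5 nM rapamycin; PI count gives viability.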

Activity change, negative = inhibition, inactive:
COc1ccccc1CN1CCNC(=O)C1=O 0%
COc1ccc(N(Cc2nnc3n2CCCCC3)C(=O)Nc2cccc(C)c2)cc1Cl 1.75%
CCOc1ccc(CN2CCc3nc(N4CCN(c5ccccn5)CC4)ncc3C2)cc1OC 16.2%
O=C(Cn1ncc2c3ccccc3n(Cc3ccccc3)c2c1=O)NC1CCCCCC1 3.03%
COc1ccccc1NC(=O)Cn1c(=O)n(-c2cccc(C)c2)c(=O)c2c1c1cc(C)ccc1n2C -0.827%
COc1ccc(-c2coc3c2c(C)cc2oc(=O)c(CC(=O)O)c(C)c23)cc1 4.63%
Cc1ccc(NC(=O)Cn2c(=O)n(Cc3ccc4c(c3)OCO4)c(=O)c3ccccc32)cc1 -1.42%
COc1ccc(-c2cn3c(n2)sc2cc(C(=O)NCc4cccc(F)c4)ccc23)cc1 3.98%
Cc1ccc(C(=O)c2cn(Cc3ccccc3C)c3nc(C)ccc3c2=O)cc1 -7.3%
Cc1ccccc1-c1cc2nccc(-c3cc(Cl)ccc3O)n2n1 -22%
CCCc1cnc2c(c1SCc1cccc(F)c1)c(=O)n(C)c(=O)n2C 3.7%
Cc1oc2c(cc(NS(=O)(=O)c3ccc(Cl)cc3)c3ccccc32)c1C(=O)OCc1ccccc1 -16.6%
CCCc1noc(-c2ccc(NCc3ccc(C)cc3)c([N+](=O)[O-])c2)n1 -4.79%
Cc1ccc(NC(=O)CN2C(=O)COc3ccc(S(=O)(=O)NC4CCCC4)cc32)c(Cl)c1 -1.47%
Cc1nc(C)c(CCNS(=O)(=O)c2ccc(F)cc2)s1 -5.39%
CCc1ccc(Nc2nnc(-n3nc(C)cc3C)c3ccccc23)cc1 0.346%
COc1ccc(CNC(=O)c2cnc3sc(N4CCCC4)nn3c2=O)c(OC)c1 -8.98%
CCCCNC(=O)CSc1nc2cc3c(cc2c(=O)n1CCCCCC(=O)NCc1ccc(OC)cc1)OCO3 0.512%
Cc1ccccc1C(=O)NCCc1sc(-c2ccc(Cl)cc2)nc1C -1.49%
COc1ccc(CNC(=O)Cc2csc3nc(-c4ccc(F)cc4)cn23)cc1 0.158%
COc1ccc(N(Cc2cccs2)C(=O)Nc2cccc(Cl)c2)cc1 -9.46%
CCOC(=O)C1CCCN(S(=O)(=O)c2ccc3c(c2)oc(=O)n3C)C1 (stereo not drawn) -2.67%
COc1ccc(C2CC(=O)N(CC(=O)Nc3ccc(C)c(Cl)c3)c3ccccc3S2)cc1OC (stereo not drawn) -1.87%
COc1ccc(-c2nc(SCC(=O)NC3CCCC3)c(-c3ccc(C)cc3)[nH]2)cc1OC -1.64%
CCOc1ccc(NC(=O)C(=O)NCC(c2cccnc2)N2CCc3ccccc32)cc1 (stereo not drawn) 8.71%
Cc1ccccc1NC(=O)CCN1C(=O)c2ccccc2Sc2ncccc21 -5.41%
COc1cccc(NC(=O)CCc2c(C)nc3ncnn3c2C)c1 -7.26%
C#CC(C)(CC)NC(=O)Cn1nnc(-c2ccc(OCc3c(F)cccc3Cl)cc2)n1 (stereo not drawn) 1.47%
COc1cc(NC(=O)CN(c2cc(C)cc(C)c2)S(=O)(=O)c2c(C)[nH]c(=O)[nH]c2=O)cc(OC)c1 0.108%
Cc1cn2c(=O)cc(COc3ccc(NC(=O)COc4ccccc4)cc3)nc2s1 -8.36%
Cc1ccc(-n2c(=O)c3ccc(C(=O)NCc4ccccc4Cl)cc3n(CC(=O)Nc3ccc(C)cc3C)c2=O)cc1 -7.62%
Cc1cc(C)cc(C(=O)n2nc(C)c(S(=O)(=O)N3CCOCC3)c2C)c1 -12.7%
O=C(CSc1ncc2c(n1)-c1ccccc1N(Cc1ccc(F)cc1)S2(=O)=O)NCCc1ccccc1 2.92%
CCOC(=O)c1c(NC(=O)c2ccc(F)cc2)sc2c1CCC(CC)C2 (stereo not drawn) -5.43%
CCOC(=O)c1cccc(NC(=O)[C@H](CSCc2ccccc2)N2Cc3ccccc3C2=O)c1 1.03%
Cc1ccc(Nc2cc(C)nc3nncn23)c(C)c1 -4.84%
CCOc1ccc(-c2nc3ccccc3c(=O)o2)cc1 4.54%
CN1C(=O)C2(c3ccccc31)N(c1ccc(Br)cc1)C(=O)CS2(=O)=O (stereo not drawn) 5.43%
O=C(C1CCC(Cn2c(=O)c3sccc3n(Cc3ccc(F)cc3)c2=O)CC1)N1CCOCC1 (stereo not drawn) -0.872%
O=c1[nH]c(C2CCCN(S(=O)(=O)c3ccccc3)C2)nc2c1nnn2Cc1ccc(OC(F)(F)F)cc1 (stereo not drawn) -3.29%
CN1C(=O)c2[nH]nc(-c3ccc(F)cc3)c2C1c1cccc(O)c1 (stereo not drawn) 2.39%
CC(C)CCn1c(SCc2cccc(F)c2)nc2ccsc2c1=O -3.77%
Cn1cc(-c2cc3n(n2)CCC(=O)N3CCCC(=O)NCc2ccccc2Cl)c2ccccc21 -4.43%
CCc1ccc2oc(C(=O)NCc3ccccc3)cc(=O)c2c1 -10.3%
CCCCOc1ccc(C2C(=O)N(C3CCCCC3)CC(=O)N2CCCC)cc1 (stereo not drawn) 9.06%
Cc1cc(C)cc(C(=O)N2CC(=O)Nc3ccc(Br)cc3C2c2ccccc2)c1 (stereo not drawn) -2.71%
Cc1ccc(NC(=O)Cn2c(-c3nonc3N)nc3ccccc32)c(Br)c1 3.94%
CCOC(=O)c1noc2ncn(CC(=O)Nc3ccccc3OC)c(=O)c12 -6.68%
